Article PMC3217859
No constants are given. Whether binding was seen depends on the method and setting. Binding seen in cells or lysates may run through a third protein. Some binding calls cover weakened binding; strength is not graded here. For part of these data: Where a sequence is shown, tags or fusion partners need not be part of it. One block for each binder: values may come before it.

How the values were obtained:
Experiment in all cases: co-IP; anti-HA immunoprecipitates (12CA5 with protein A-Sepharose, or F7 anti-HA-agarose when probing for Mst3 or Mst4; 1.5 h, 4°C) of lysates (1% Nonidet P-40, 0.135 M NaCl, 10% glycerol, 20 mM Tris pH 8.0) of HEK293 cells transfected with HA-striatins; endogenous partners by immunoblot, partner/HA-striatin ratio by chemilumimager against wild type; 50 mM NaF and 100 nM okadaic acid in the lysis buffer in the phosphorylation experiments
[1] = target: T1, HA-tagged Δ(115-149) striatin (human) (UniProt O43815)
T1 sequence: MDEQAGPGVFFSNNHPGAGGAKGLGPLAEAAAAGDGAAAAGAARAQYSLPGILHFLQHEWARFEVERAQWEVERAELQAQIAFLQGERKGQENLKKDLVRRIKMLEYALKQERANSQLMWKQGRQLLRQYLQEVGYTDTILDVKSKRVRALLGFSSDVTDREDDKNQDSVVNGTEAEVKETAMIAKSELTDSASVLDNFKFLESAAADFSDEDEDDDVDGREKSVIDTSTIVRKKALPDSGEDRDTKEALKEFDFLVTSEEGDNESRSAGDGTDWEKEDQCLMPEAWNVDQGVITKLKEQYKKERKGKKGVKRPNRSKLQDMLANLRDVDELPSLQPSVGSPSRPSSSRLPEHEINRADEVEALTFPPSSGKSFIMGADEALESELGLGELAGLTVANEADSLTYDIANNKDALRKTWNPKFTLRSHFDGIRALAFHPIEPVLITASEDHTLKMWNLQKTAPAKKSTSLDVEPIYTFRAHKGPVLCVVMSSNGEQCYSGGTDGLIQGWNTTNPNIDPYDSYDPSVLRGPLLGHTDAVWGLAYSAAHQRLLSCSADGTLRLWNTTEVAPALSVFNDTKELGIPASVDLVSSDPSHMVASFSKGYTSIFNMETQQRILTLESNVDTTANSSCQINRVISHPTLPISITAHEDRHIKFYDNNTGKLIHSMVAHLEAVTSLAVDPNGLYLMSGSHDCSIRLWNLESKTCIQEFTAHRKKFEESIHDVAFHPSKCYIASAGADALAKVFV

[2] = target: HA-tagged Δ(270-344) striatin (human) (UniProt O43815)
[3] = target: T2, HA-tagged Δ(70-116) striatin (human) (UniProt O43815)
T2 sequence: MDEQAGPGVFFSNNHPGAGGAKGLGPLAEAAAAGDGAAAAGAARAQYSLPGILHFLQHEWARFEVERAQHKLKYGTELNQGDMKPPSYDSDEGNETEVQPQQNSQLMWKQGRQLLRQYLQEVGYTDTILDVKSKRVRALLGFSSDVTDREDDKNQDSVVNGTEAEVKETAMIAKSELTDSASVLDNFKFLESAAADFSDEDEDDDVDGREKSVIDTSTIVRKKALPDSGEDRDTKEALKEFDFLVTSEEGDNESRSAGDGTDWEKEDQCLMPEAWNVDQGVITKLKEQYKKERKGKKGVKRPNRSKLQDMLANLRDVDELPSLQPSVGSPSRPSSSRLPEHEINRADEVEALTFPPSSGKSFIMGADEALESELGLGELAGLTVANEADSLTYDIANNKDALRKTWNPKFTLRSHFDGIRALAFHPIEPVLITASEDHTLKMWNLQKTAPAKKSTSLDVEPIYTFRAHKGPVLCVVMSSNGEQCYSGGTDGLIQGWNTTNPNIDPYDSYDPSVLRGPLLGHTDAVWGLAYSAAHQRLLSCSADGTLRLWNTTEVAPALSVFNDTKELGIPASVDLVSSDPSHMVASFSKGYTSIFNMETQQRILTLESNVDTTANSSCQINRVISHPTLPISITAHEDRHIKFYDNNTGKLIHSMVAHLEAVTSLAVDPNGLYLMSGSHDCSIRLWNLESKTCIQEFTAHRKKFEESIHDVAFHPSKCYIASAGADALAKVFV

- binding [1]: binds
- binding [2]: binds
B1: Mob3/phocein (protein, UniProt Q9Y3A3 1-225)
chain: MVMAEGTAVLRRNRPGTKAQDFYNWPDESFDEMDSTLAVQQYIQQNIRADCSNIDKILEPPEGQDEGVWKYEHLRQFCLELNGLAVKLQSECHPDTCTQMTATEQWIFLCAAHKTPKECPAIDYTRHTLDGAACLLNSNKYFPSRVSIKESSVAKLGSVCRRIYRIFSHAYFHHRQIFDEYENETFLCHRFTKFVMKYNLMSKDNLIVPILEEEVQNSVSGESEA

- binding [3]: no binding
B2: S/G2 nuclear autoantigen (SG2NA) (protein, UniProt Q13033 1-797)
chain: MDELAGGGGGGPGMAAPPRQQQGPGGNLGLSPGGNGAAGGGGPPASEGAGPAAGPELSRPQQYTIPGILHYIQHEWARFEMERAHWEVERAELQARIAFLQGERKGQENLKKDLVRRIKMLEYALKQERAKYHKLKYGTELNQGDLKMPTFESEETKDTEAPTAPQNSQLTWKQGRQLLRQYLQEVGYTDTILDVRSQRVRSLLGLSNSEPNGSVETKNLEQILNGGESPKQKGQEIKRSSGDVLETFNFLENADDSDEDEENDMIEGIPEGKDKHRMNKHKIGNEGLAADLTDDPDTEEALKEFDFLVTAEDGEGAGEARSSGDGTEWDKDDLSPTAEVWDVDQGLISKLKEQYKKERKGKKGVKRANRTKLYDMIADLGDDELPHIPSGIINQSRSASTRMTDHEGARAEEAEPITFPSGGGKSFIMGSDDVLLSVLGLGDLADLTVTNDADYSYDLPANKDAFRKTWNPKYTLRSHFDGVRALAFHPVEPVLVTASEDHTLKLWNLQKTVPAKKSASLDVEPIYTFRAHIGPVLSLAISSNGEQCFSGGIDATIQWWNMPSPSVDPYDTYEPNVLAGTLVGHTDAVWGLAYSGIKNQLLSCSADGTVRLWNPQEKLPCICTYNGDKKHGIPTSVDFIGCDPAHMVTSFNTGSAVIYDLETSQSLVILSSQVDSGLQSNNHINRVVSHPTLPVTITAHEDRHIKFFDNKTGKMIHSMVAHLDAVTSLAVDPNGIYLMSGSHDCSIRLWNLDSKTCVQEITAHRKKLDESIYDVAFHSSKAYIASAGADALAKVFV
